Experimental data from the BET-seq Pho4 binding data (Le et al. 2018).
This is one part of the list. The energies were worked out here from pooled read counts, against the library average; single values are noisy.

Molecular target: T1, Pho4 (S. cerevisiae) (UniProt P07270)
T1 sequence: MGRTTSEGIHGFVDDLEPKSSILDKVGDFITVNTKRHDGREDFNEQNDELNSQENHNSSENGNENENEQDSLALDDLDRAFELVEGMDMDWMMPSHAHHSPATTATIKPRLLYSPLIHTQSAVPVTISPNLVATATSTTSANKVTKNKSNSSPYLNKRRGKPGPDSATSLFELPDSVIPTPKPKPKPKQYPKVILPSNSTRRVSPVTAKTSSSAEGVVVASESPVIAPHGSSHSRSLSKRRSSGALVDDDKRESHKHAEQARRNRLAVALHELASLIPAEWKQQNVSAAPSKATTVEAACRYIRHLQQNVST
Assay: relative binding free energy (BET-seq); higher = weaker binding
Conditions: reference: library average

Sequence	relative binding free energy [kcal/mol]
TTTAGCACGTGTAATT	0.04
ATCAGCACGTGGCGTT	-0.06
GCTGTCACGTGGTGGA	0.2
ATATTCACGTGTAAGT	0.37
TAAGGCACGTGTCGGT	0.01
GGTGCCACGTGAGGCG	0.18
TAAGTCACGTGCTTTG	0.04
GTAGCCACGTGTATGT	-0.07
CGGTACACGTGTCAGT	0.18
GATTACACGTGTGTGG	0.17
GTTAGCACGTGAAGCG	0.23
TAAGGCACGTGTTTTT	0.01
ATAGGCACGTGTTTGT	-0.13
TTGATCACGTGTGGAG	0.33
GTGGGCACGTGCCAAG	-0.02
AGGGTCACGTGCGAAT	0.27
GTATGCACGTGGGGAA	0
GGGGCCACGTGTAAGG	0.06
TTCTACACGTGATGTT	0.18
GAATACACGTGTATGT	0.04
TCGTCCACGTGTAAGG	0.34
TATATCACGTGAATGG	0.44
TGTTACACGTGTCTAG	0.1
TGTCGCACGTGGCTTG	-0.19
GTTTGCACGTGTGGCC	0.12
ACTGTCACGTGGCTGG	-0.04

Sequence	relative binding free energy [kcal/mol]
GGTGTCACGTGGCGTT	0.09
GTGGGCACGTGATTGC	0.04
ATAGTCACGTGGGAAG	0.03
GAAAGCACGTGGATTG	0.08
TAATTCACGTGGAGTA	0.34
GGGGTCACGTGAGCAA	0.36
TGTGGCACGTGCATTA	-0.1
CGTGTCACGTGGATTC	0.18
TTGCGCACGTGGCGGG	-0.26
CTGGTCACGTGCGGTT	0.17
TATGGCACGTGTTTAG	0.03
TGGTTCACGTGGATGG	0.39
AGTGGCACGTGGGACA	-0.25
AGGGCCACGTGTGTCG	0.04
GCGTACACGTGGTGGT	0.1
AGGGTCACGTGAGTCA	0.24
TGTTCCACGTGACGTG	0.15
GGGGTCACGTGTGATA	0.23
TGGAGCACGTGAGAAT	0.3
TGGATCACGTGCTTGG	0.19
GTTCACACGTGATGTT	0.29
TTAAACACGTGGGGCA	-0.16
AAGGTCACGTGGTTCT	-0.02
CTGTTCACGTGTTTCT	0.24
TTCAGCACGTGAGATG	0.26
AGCGTCACGTGTTTAT	-0.02

Sequence	relative binding free energy [kcal/mol]
CTGTTCACGTGGGATA	0.21
TTATCCACGTGGTAGT	-0.19
CTTACCACGTGTTGTG	-0.02
TGAAACACGTGTAGAG	0.08
TATTACACGTGGTAGG	0
TGTTTCACGTGGACAG	0.28
AAGGGCACGTGGGTGA	-0.21
ATGCTCACGTGGGATA	0.12
AAGTGCACGTGGTAGG	-0.08
AAGATCACGTGTGCGT	0.08
CGAGGCACGTGTGCGG	-0.08
GGAGTCACGTGCGGTG	0.14
CAAATCACGTGTGTGT	0.13
TCTGTCACGTGGTTTA	-0.07
ACTTTCACGTGGAGTT	0.38
GGGTGCACGTGGCAGG	-0.03
TTAATCACGTGTATGT	0.02
GGGCTCACGTGAAGCG	0.45
AGGTCCACGTGGAGGA	0
GCTGGCACGTGTCGGT	-0.09
TTGTGCACGTGAAGGA	0.18
AAAGTCACGTGGTGAG	-0.02
TGTTGCACGTGATCTT	-0.1
ATGGTCACGTGATGAT	0.23
CGGATCACGTGGGTTC	0.03
GGAGGCACGTGATGGT	0.15

Sequence	relative binding free energy [kcal/mol]
GTAGGCACGTGTTTTT	0
GTTTTCACGTGGCTCG	0.33
GTTTTCACGTGCAGCT	0.33
TGTAACACGTGGTAGA	-0.06
GGAATCACGTGTTCGT	0.21
AGGATCACGTGGGTTC	0.09
GTGACCACGTGTCGGT	0.02
GTGTGCACGTGAGCAG	0.12
GTTTCCACGTGGGATT	0.05
GTTCGCACGTGTTTTT	0.12
GCGCTCACGTGTGGGT	0.05
TTACACACGTGGGTGT	-0.11
TTGTTCACGTGTGTCA	0.21
TTCTTCACGTGTGTAT	0.38
GGTATCACGTGCGGAA	0.21
AGAGTCACGTGACAGT	0.21
ATCGTCACGTGGTAGG	-0.02
GTGGGCACGTGGAGGG	-0.07
GGGGTCACGTGTTCTT	0.19
AGCAACACGTGAGGGG	0.2
GCGGTCACGTGGTGGC	0.09
ATTAGCACGTGCAGTT	0.04
GGAGGCACGTGTTGGG	-0.08
CGTTCCACGTGTAGTT	0.21
TCAGGCACGTGAGGAA	0.25
GTGTGCACGTGTGGCG	0.05

Sequence	relative binding free energy [kcal/mol]
TATTTCACGTGGGGGT	0.18
ATTAGCACGTGGGCGG	-0.13
GTAATCACGTGGGGGG	0.08
AGGAGCACGTGGGGGG	-0.22
TTCTGCACGTGTGCTT	0.04
GCGAGCACGTGGGGGT	-0.16
GCATTCACGTGTAGTG	0.19
GACTGCACGTGTGGTA	0.07
GTAGGCACGTGATGTG	-0.02
TAAGCCACGTGTGTTT	0.11
GGCGGCACGTGGTAGA	-0.08
AGACGCACGTGTGGCG	-0.13
GTGTTCACGTGGTAAA	0.28
GGCGTCACGTGGGACG	0.12
CGTGGCACGTGGGCTG	-0.27
TTGGGCACGTGGGGTC	-0.16
TGATGCACGTGACATG	0.08
CTTGTCACGTGTATTT	0.11
ATTGACACGTGTTTGT	-0.05
TAGTTCACGTGGCGTG	0.2
CGTTGCACGTGACGTT	0.18
GCAGGCACGTGTGCGG	-0.21
ATAGGCACGTGTGAGA	0.06
AGTTACACGTGTGGAA	0.06
ATGGACACGTGATGGT	0.16
GAGACCACGTGGTGTG	0.07

Sequence	relative binding free energy [kcal/mol]
ATGTTCACGTGTTCTT	0.11
GTTGACACGTGGTTAA	-0.03
GTTGACACGTGGTGGA	0.06
TTAATCACGTGATGGG	0.32
TGGATCACGTGGGTGT	0.11
TTAGGCACGTGCAGTT	-0.08
GTTGTCACGTGGCTTG	0.03
GATTGCACGTGGGCAT	-0.01
TTGGGCACGTGAAGCG	0.06
GGAGGCACGTGTGCGT	-0.14
GTTAACACGTGAATGG	0.24
TTACGCACGTGAAGTT	0.16
TGTGGCACGTGCGAAT	0.04
GGGTACACGTGGTGGG	0.06
GGTTGCACGTGTCGCT	0.04
TTGAGCACGTGCGTGT	-0.23
GGACTCACGTGTGTGG	0.11
TGAGGCACGTGGAATT	0.05
TTAGACACGTGCGTGG	-0.01
TGTTACACGTGGATAA	0.07
GGTGACACGTGTGGGT	0.11
AGTCTCACGTGCTTGT	0.32
TGGATCACGTGAGTAA	0.28
AGTGACACGTGACTGT	0.01
GATCGCACGTGGGAGT	-0.05
CGTGGCACGTGGCGGT	-0.17

Sequence	relative binding free energy [kcal/mol]
TGTTTCACGTGTAATA	0.25
CATTACACGTGTAGGT	0.04
TGGCACACGTGTAGGT	0.05
TTATACACGTGTCATG	-0.1
GCGTGCACGTGTCGGT	0.07
TGAGTCACGTGTTAGT	0.22
TAAATCACGTGTGTTT	0.08
CTGTTCACGTGGTGCA	0.16
TGTTCCACGTGCTGTG	0.02
TTTTGCACGTGAACGG	0.14
ATGGCCACGTGAGTGT	0.18
GGGTGCACGTGTAGTT	0.01
GGTGACACGTGTGGGG	0.14
TAGTGCACGTGTCATT	-0.08
TGGAGCACGTGTCTCG	0.08
TAGAGCACGTGATGGT	0.1
TTGGACACGTGGTTCT	-0.08
GTCGGCACGTGAATAG	0.19
AGTAGCACGTGATGCT	-0.01
TGTGTCACGTGTGCCT	-0.06
GCTTGCACGTGTATGA	0.08
CAAGCCACGTGGGGGG	-0.34
TGGCGCACGTGCTAGG	-0.12
ATTAGCACGTGATATA	0.03
ATGTACACGTGGGGGA	-0.1
ATTTGCACGTGTGGAC	0.1

Sequence	relative binding free energy [kcal/mol]
TGATGCACGTGTTAGA	0.02
CTTGGCACGTGGCGGC	-0.16
GTTGACACGTGAGTGG	0.21
GAGGGCACGTGGAGCG	0.01
TAAAGCACGTGTATTG	-0.07
TTGGTCACGTGGGTGA	0
TGCTGCACGTGCGGGT	-0.1
GACTACACGTGGTGGT	0.1
AAGGACACGTGTGGCG	0.23
GGCTTCACGTGTGGAA	0.35
GGTAACACGTGTAAAG	0.12
AAACGCACGTGGGGGG	-0.31
CTTCGCACGTGGTTGG	-0.08
TCATTCACGTGGTGAG	0.24
TGTAGCACGTGTGTGC	-0.04
TATGACACGTGGAGAT	0.1
GCGAGCACGTGTGTGA	-0.07
GGGAGCACGTGGCATT	-0.13
TTAGACACGTGAAATG	0.32
CTTGACACGTGGTGGA	0.02
TATTGCACGTGCGTAG	-0.22
AGGTCCACGTGATGGT	0.15
GTGAGCACGTGTAAGT	-0.11
AAGGACACGTGATAGG	0.23
GTGGGCACGTGTATAT	-0.08
TGTGGCACGTGACTGA	0.05

Sequence	relative binding free energy [kcal/mol]
TAGACCACGTGGTAGT	-0.07
GAAGTCACGTGGGATT	0.23
TGAGGCACGTGGGCAT	-0.14
GCTGACACGTGTTAGT	0.25
TTGCGCACGTGAGTGT	0.18
TTCATCACGTGATTTG	0.36
ATCGGCACGTGTATTG	-0.1
TTGGCCACGTGTATGT	-0.07
GGGGTCACGTGTCACG	0.16
ATTTCCACGTGTGATT	0.12
TCGGGCACGTGGAGCG	0
ACATTCACGTGTATGT	0.19
GTTGGCACGTGGTCTT	-0.05
TAGAGCACGTGGTGCG	-0.28
GCGATCACGTGCGGGG	0.15
TGTGACACGTGTTGAA	-0.01
ATAAGCACGTGATAGT	0.06
GGGTGCACGTGACCGG	0.02
GCGATCACGTGTAGGT	0.16
TTGAGCACGTGAGTTA	0.12
AGAGTCACGTGATTTG	0.24
AGTCACACGTGTTAAG	0.15
